# Assay results from PMC12136788.
# The list shows a part of the results.
# B1: chr7:124031896:124032004:-|CDS|ENSG00000234224|unk|total|mutant (ssRNA)
# RNA: GGGAGUUCUACAGUCCGACGAUCUACCCGCUCAAUUUUAUGGGCCUCAUCACCCUGAUGUAUUUACCUGGCUGGAUAUUCCUCCGUGUGUACCAGGACCUAAUUUCCAACGUGUUGUGGAGGGUGCAGUACGUACCAGCUAACCAACAGAGGAUUGAGCAUCA
# B2: chr19:10133403:10133440:-|3pUTR|ENSG00000130816|msi1_unk|FALSE|overlapping (ssRNA)
# RNA: GGGAGUUCUACAGUCCGACGAUCUUUUUUAUUAUGCAUUAUAUCAAAUCUACCACUGUAUGAGUGGAAAUUAAGACUUUAUGUAGUUUUUAUAUGUUGUAAUAUUUCUUCAAAUAAAUCUCUCCUAUAAACCACCCUGGGUGGCAACAGAGGAUUGAGCAUCA
# B3: chr10:89213657:89213758:-|3pUTR|ENSG00000107798|msi1|total|mutant (ssRNA)
# RNA: GGGAGUUCUACAGUCCGACGAUCUUACAAUACUGUCCGGUGGACAAAAUGACAAUUGAUAUGUUUUUCUGAUAUAAUUACUUCCGCUGCACUAACAGUACAAUGCUUGUUAAUGGUUAAUACCGGCAGGGCGAAUACUACUUUCAACAGAGGAUUGAGCAUCA
# B4: chr9:127749210:127749665:-|CDS|ENSG00000095370|control|control|control (ssRNA)
# RNA: GGGAGUUCUACAGUCCGACGAUCUUCCCACUGCGCUACCUCGAGGCCAGCUAUGGCCUGGGACAGGGGAGUAGCAAGCCUGCUAGCCCCGUCAGCCCCUCAGGCCCCAAGGGCAGCCACAUGAAGCGGCGCAGCGUCACCAUGCAACAGAGGAUUGAGCAUCA
# B5: ENSG00000136451:be:win_101|CDS|ENSG00000136451|bound_else_gene|NA|bound_elsewhere_windowed (ssRNA)
# RNA: GGGAGUUCUACAGUCCGACGAUCCCGUGGAGCCCCCUGAUCAGAAACCAUUGCUUCCAAUACCAAUAACUCAGAAACCUCAGGGUGCACCAGAAACAUUAAAGGAUGCCAUUGGGAUUAAAAAAGAAAAACCCAAAACUUCAUCAACAGAGGAUUGAGCAUCA
# B6: ENSG00000070961:be:win_5701|3pUTR|ENSG00000070961|bound_else_gene|NA|bound_elsewhere_windowed (ssRNA)
# RNA: GGGAGUUCUACAGUCCGACGAUCCAUUUACCCUAAAUAAGGGUGGUGGACUAUCUUGAAGAACCCUUUCAACUCUAAAAAUUGACCCUAUCAACUGGAGAGCCCACAAGGCAUAGGGAAUAGAGAAAAGGGAAAUGUUUUCAGCAACAGAGGAUUGAGCAUCA
# B7: chr9:37357341:37357442:+|3pUTR|ENSG00000147905|unk|FALSE|unique (ssRNA)
# RNA: GGGAGUUCUACAGUCCGACGAUCAUUAUCUAUGAUUAAAUAAAGUGAGUUUUUGGUUUUGUUUUUUUAAUUUCAGCCAUUCCUAGAGUUACUGAAUAUCCAUGGAGAUCUCAAUUCUCUGUGUCCAACAGGAUAUUAGGUAAGCAACAGAGGAUUGAGCAUCA
# B8: chrX:130230552:130230660:-|CDS|ENSG00000056277|unk|total|mutant (ssRNA)
# RNA: GGGAGUUCUACAGUCCGACGAUCAUCAGAACGUCCAUGUGAUGAAGACAAGACUGAUUCAGAGACAGGAAAGUUGAUCAUGUCCGUCAAUGAGUUUUAUUAUGGAAGGCAUGAAGGAGUCACUGAGAAAGAGCCAAAGACUUACAACAGAGGAUUGAGCAUCA
# B9: chr3:120327094:120327202:-|3pUTR|ENSG00000163428|unk|total|mutant (ssRNA)
# RNA: GGGAGUUCUACAGUCCGACGAUCGAAGAGAAGUCACCAAACACCCCGGGACAGUCCCCGGCCCCGAAAGCCCUUUAAAGUAACCGUGAAUUGUUUUAAAAUUAAGUUAUUGAGUGGCCUACUGACUACCAUCCAAAAACCUUUCAACAGAGGAUUGAGCAUCA
# B10: chr1:150647640:150647741:-|3pUTR|ENSG00000143457|unk|FALSE|unique (ssRNA)
# RNA: GGGAGUUCUACAGUCCGACGAUCAGAUUCAAUUACCUGGAUGUCAAAGUCCUAGAGCCAGAAAUAUAUUCUCUCAUCCCUCUUAGCAUUCUCUUGCUCCCUCAUUCACUAGGGCAAAUGUCUAAAUGAAGAAAAGUCUCUCUCCAACAGAGGAUUGAGCAUCA
# B11: chr1:152579660:152579936:-|CDS|ENSG00000163202|control|control|control (ssRNA)
# RNA: GGGAGUUCUACAGUCCGACGAUCGUACAGUGUCUGCCUCCAGCUUCCUCUGGCUGUGCCCCAAGCUCUGGGGGCUGUGGCCCUAGCUCCGAGGGCGGCUGCUUCCUGAACCACCACAGGCGCCACCACCGAUGCCGGCGCCAGCAACAGAGGAUUGAGCAUCA
# B12: ENSG00000142634:stop:overlap|stop_codon|ENSG00000142634|stop_codon|NA|stop_codon (ssRNA)
# RNA: GGGAGUUCUACAGUCCGACGAUCAGGCGGAGGAGAUGAAGCAGCGGAAAGCGGCCUUCAAGGAGCUGCAGUCCACCUUUAAGUAGCGGGGGCUGCAGCCGACCGCCCUGCUCCGGCCCCAGUGUGGUGGGCGAGGGUGGCGCACAACAGAGGAUUGAGCAUCA
# B13: chr22:35295155:35295256:+|3pUTR|ENSG00000100281|unk|FALSE|unique (ssRNA)
# RNA: GGGAGUUCUACAGUCCGACGAUCUUUCUUCUCCUGGCCCUGACAGAGCACUACAGCAUCAAAGUAAAUCUUUGGGGACAGUGUAGCCCAUCUGCAUCCUAUUUAAUUUCUUCCCUUCUCCCCACCAGUGUUGUCACAGGGCUACAACAGAGGAUUGAGCAUCA
# B14: chr4:138171397:138171528:-|3pUTR|ENSG00000151012|msi1|total|mutant (ssRNA)
# RNA: GGGAGUUCUACAGUCCGACGAUCAUUAUGGCAAAGAGGAGAGAAAGAAAUUUAUUUUACAUUGACAUUGCAUUGCUUCCCCUCCGAUACCAAUUCCGAUAACAAACACUCAUGCUUUAAUGGAUUAUACCCAGAGCACUUUGACAACAGAGGAUUGAGCAUCA
# Target: MSI1 full-length (mouse, UniProt Q61474 1-362)
# Chain of UniProt Q61474 (Q61474 whole entry): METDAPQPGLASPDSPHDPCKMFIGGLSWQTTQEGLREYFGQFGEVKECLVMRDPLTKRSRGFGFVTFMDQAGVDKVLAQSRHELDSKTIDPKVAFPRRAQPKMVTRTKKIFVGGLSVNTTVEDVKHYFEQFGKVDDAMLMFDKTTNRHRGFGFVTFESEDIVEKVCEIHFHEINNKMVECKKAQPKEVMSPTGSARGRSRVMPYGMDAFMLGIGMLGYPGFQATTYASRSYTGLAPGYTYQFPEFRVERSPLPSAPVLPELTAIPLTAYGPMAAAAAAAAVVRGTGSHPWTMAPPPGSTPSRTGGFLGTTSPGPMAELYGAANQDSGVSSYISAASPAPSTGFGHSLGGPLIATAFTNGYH
# Assay: nsRBNS (natural sequence RNA bind-n-seq); RBNS binding buffer (assumed for nsRBNS): 25 mM Tris pH 7.5, 150 mM KCl, 3 mM MgCl2, 0.01% Triton X-100, 500 ug/ml BSA, 20 U/ml SUPERase-In, 4 C; UNK is unkempt and MSI1 is Musashi-1; names of the RNAs are library labels; protein concentration not given here; high values mean tight binding
row,Binder,binding signal
1,B1,0.457 enrichment R
2,B2,3.88 enrichment R
3,B3,0.363 enrichment R
4,B4,0.421 enrichment R
5,B5,0.491 enrichment R
6,B6,0.233 enrichment R
7,B7,0.98 enrichment R
8,B8,0.399 enrichment R
9,B9,0.474 enrichment R
10,B10,0.58 enrichment R
11,B11,0.609 enrichment R
12,B12,1.82 enrichment R
13,B13,0.894 enrichment R
14,B14,0.495 enrichment R
